# Assay results: PubChem BioAssay AID2546 (National Center for Advancing Translational Sciences (NCATS), 2010)
# About 11,000 (3.5%) of roughly 310,000 compounds were called active. This list was built around the results that the source calls inconclusive (neither active nor inactive); the mix of calls is not that of the screen. The call rests on the fitted dose curve; in most records, active means well fitted inhibition curve with a large enough effect; inconclusive means small, poorly fitted or top-dose-only effect, or effect the other way; inactive means flat fitted curve, though single readings scatter. Potencies of inconclusive entries are left out as doubtful fits.
# Test: VP16 counterscreen qHTS for inhibitors of ROR gamma transcriptional activity;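 further: Gal4-VP16 expression switched on by copper sulfate through the metallothionein promoter; nearly all actives have a fitted effect of over 50% in size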
# Settings: Drosophila S2 Gal4-VP16 UAS-luciferase, luminescence, 20 h; activity, negative = inhibition: at 53.6 µM (top of the series)
# On the % scale 0 is the no-effect control and ±100 the full control effect; potency means the concentration at half of the fitted maximal effect; tags describe the fitted curve by direction and shape.
Compound,Potency,"activity, negative = inhibition"
COc1ccc(C(=O)NC(=C(Cl)Cl)S(=O)(=O)c2ccc(C)cc2)cc1,"inconclusive [inhibitor, single point]",–
COc1cc(C(=O)Oc2ccccc2/C=N/NC(=O)c2ccc(C)c(Cl)c2)cc(OC)c1OC,"inconclusive [inhibitor, partial curve]",–
CCC1C(=NO)C(CC)C(c2ccccc2)NC1c1ccccc1 (stereo not given),"inconclusive [inhibitor, single point]",–
O=C1NC(=Nc2ccccc2)S/C1=C\c1cccn1-c1ccccc1,–,inactive: -22.2%
COc1ccc(-n2c(SCCNCCO)nc3sc4c(c3c2=O)CCCC4)cc1,–,inactive: -4.49%
O=C(CN1CCN(C(=O)C2CCCO2)CC1)Nc1c(Cl)cccc1Cl (stereo not given),–,inactive: -7.25%
CCOC(=O)NC(=O)/C(N=Nc1cccc(C(F)(F)F)c1)=C(\C)O,–,inactive: -1.56%
CCn1nnc(NC(=O)c2sc3ccccc3c2Cl)n1,"inconclusive [inhibitor, single point]",–
COc1ccccc1-n1c(C)nc2cc(C(=O)NCc3ccc4c(c3)OCO4)ccc21,"inconclusive [inhibitor, single point]",–
O=C(NCC(Cl)c1ccc2ccccc2c1)c1c(F)cccc1F (stereo not given),–,inactive: 8.94%
O=C(Nc1ccccc1)c1cnc[nH]1,"inconclusive [inhibitor, single point]",–
O=C(COC(=O)c1cccnc1)c1ccc(Cl)cc1,"inconclusive [inhibitor, single point]",–
COc1ccc(NC(=O)Cn2c(C)cc(=O)c3ccccc32)cc1,"inconclusive [inhibitor, single point]",–
Cc1cc(C)nc(N/N=C/c2ccccc2OCc2ccc(Br)cc2)n1,"inconclusive [inhibitor, single point]",–
O=C(/C=C/c1ccccc1Cl)Nc1ccccc1,"inconclusive [inhibitor, single point]",–
Cc1ccc(-c2nnc(NCc3ccccc3)c3ccccc23)cc1,"inconclusive [inhibitor, single point]",–
COc1cccc(C(=O)C2CCCN(Cc3cccc(-n4nc(C)cc4C)c3)C2)c1 (stereo not given),–,inactive: -6.88%
CCCCCCCCC[n+]1cccc2c3ccccc3ccc21,active: 2.51 µM,–
COc1ccc(-n2cnnc2SCC(=O)N2CCN(S(=O)(=O)c3ccccc3)CC2)cc1,"inconclusive [inhibitor, single point]",–
CCNC(=O)COC(=O)Cc1ccc(Cl)cc1Cl,–,inactive: -4.08%
CC1(C)S[C@@H]2[C@H](NC(=O)COc3ccccc3)C(=O)N2[C@H]1C(=O)O,"inconclusive [activator, single point]",–
CCOc1ccccc1NC(=S)NCCc1ccccc1,active: 5.01 µM,–
O=C(COc1ccc(F)cc1)N1CCC(Cc2ccccc2)CC1,"inconclusive [activator, single point]",–
O=C(Nc1nnc(-c2ccco2)o1)c1ccc(S(=O)(=O)N2CCOCC2)cc1,active: 5.62 µM,–
NNc1nc2cc3c(cc2s1)OCCO3,"inconclusive [inhibitor, single point]",–
CCCn1c(C)nc2c(N(CCN(C)C)Cc3ccccc3)nc(C)nc21,–,inactive: 9.84%
O=C(/C=C/C(=O)N1CCc2ccccc2C1)N1CCc2ccccc2C1,active: 20 µM,–

Compound,Potency,"activity, negative = inhibition"
Cc1ccc(OCC(=O)N/N=C/C=C/c2ccco2)cc1C,"inconclusive [inhibitor, single point]",–
CCOc1ccc(C(C)=O)cc1N1C(=O)C2C3C=CC(C3)C2C1=O (stereo not given),–,inactive: 4.62%
COc1ccc(CCNC(=O)COc2ccc(S(=O)(=O)NC3CCCCC3)cc2Cl)cc1OC,–,inactive: -21.4%
OC(CN1CCN(c2cccc(Cl)c2)CC1)c1ccccc1 (stereo not given),–,inactive: -0.225%
COc1ccc(NC(=O)c2nc[nH]c2C(=O)N2CCN(c3ccccc3)CC2)cc1,active: 11.2 µM,–
Cc1ccc(Cn2c(=N)n(CC(O)COc3ccccc3)c3ccccc32)cc1 (stereo not given),active: 7.08 µM,–
COc1ccc(CNc2ccnc(-c3cccc(C#N)c3)n2)c(OC)c1,"inconclusive [inhibitor, partial curve, poor fit]",–
O=C(c1ccc(Cl)cc1)c1c[nH]c(C(=O)NNc2cccc(Cl)n2)c1,"inconclusive [inhibitor, single point]",–
Cc1cc(OC(C)C)c2c(-c3ccccc3)cc(=O)oc2c1,–,inactive: -3.83%
C=C(C)CNC(=S)/N=c1\scc(C)n1CC,active: 8.91 µM,–
CCCNC(=S)N1CCN(c2nc(-c3ccc(C)cc3)cs2)CC1,"inconclusive [inhibitor, single point]",–
CC(=O)Nc1ccc(NC(=O)CSc2ccc(-c3ccc4c(c3)OCO4)nn2)cc1,–,inactive: 6.9%
O=C(/C=C/c1ccco1)NC(=S)N1CCCCC1,active: 22.4 µM,–
Cc1nn(-c2ccccc2)c2sc(C(=O)NNC(=O)COc3ccccc3)cc12,active: 10 µM,–
Cc1nn(Cc2c(Cl)cccc2Cl)c(C)c1NC(=O)c1cc(C(C)C)on1,"inconclusive [inhibitor, single point]",–
CCOc1ccc(S(=O)(=O)Nc2cc(Sc3ncn[nH]3)c3oc(=O)sc3c2)cc1,"inconclusive [inhibitor, single point]",–
O=C(Nc1cccc2c1CCCC2)c1ccccc1Cl,–,inactive: -9.5%
Nc1c(C(=O)C2CC2)sc2nc3c(cc12)CCC3,"inconclusive [activator, partial curve]",–
NNC(=S)NC1CC2CC1C1C=CCC21 (stereo not given),active: 2.82 µM,–
Cc1c(NC(=O)c2ccc(C(C)(C)C)cc2)cccc1[N+](=O)[O-],"inconclusive [activator, single point]",–
O=c1c2cc(N3CCOCC3)ccc2[nH]c(=S)n1Cc1ccco1,"inconclusive [inhibitor, single point]",–
CCOC(=O)c1c(-c2ccc(C)cc2)cn2ccccc12,"inconclusive [inhibitor, single point]",–
CC(C)N(Cc1ccccc1)C(=O)CN1C(=O)NC(Cc2ccccc2)(c2ccccc2)C1=O (stereo not given),–,inconclusive: -31.1% [inhibitor]
CC1CCCC(NC(=S)NC(=O)c2ccccc2Br)C1C (stereo not given),active: 5.01 µM,–
Cc1ncoc1C(=O)N1CCCC(CCC(=O)NCc2ccccc2F)C1 (stereo not given),–,inactive: -4.44%
CCOc1ncccc1C(=O)OCc1ccc(Cl)cc1,–,inactive: 2.8%
CCOC(=O)NC[C@H](Cc1ccc(OCCc2nc(-c3ccccc3)oc2C)cc1)N/C(C)=C\C(=O)c1ccc(C(F)(F)F)cc1,–,inactive: -3.87%

Compound,Potency,"activity, negative = inhibition"
Cc1ccc(-c2noc(-c3ccccc3F)n2)cc1,"inconclusive [inhibitor, single point]",–
COc1ccc(C2C(C#N)=C(N)Oc3cc(O)ccc32)cc1OC (stereo not given),–,inactive: 0.251%
Cc1cc(C(=O)CCl)c(C)n1CC1COc2ccccc2O1 (stereo not given),"inconclusive [inhibitor, single point]",–
CC1CCCCC1NC(=S)NC(=O)c1sc2ccccc2c1Cl (stereo not given),–,inactive: 6.03%
CCc1ccc(-c2nc(-c3ccncc3)no2)cc1,"inconclusive [inhibitor, single point]",–
CCCCCC1=CCC/C1=N\NC(=O)c1ccc2c(c1)OCO2,–,inactive: 3.01%
O=C(CNC(=O)c1ccncc1)N/N=C/c1cc(Br)ccc1O,–,inactive: -5.63%
Cc1cc(Cl)ccc1OC(C)C(=O)NCCc1ccc2c(c1)OCCO2 (stereo not given),"inconclusive [inhibitor, single point]",–
CCn1c(COc2ccc(C)cc2)nc2ccccc21,"inconclusive [inhibitor, single point]",–
Cn1cc(-c2nc3cnc(N4CCNCC4)nc3n(Cc3ccc(F)cc3)c2=O)c2ccccc21,"inconclusive [inhibitor, single point]",–
CCNC(=S)NNC(=O)c1csc(C)c1,"inconclusive [inhibitor, single point]",–
CC(Oc1ccc(F)cc1F)C(=O)NNC(=S)NCC1CCCO1 (stereo not given),"inconclusive [inhibitor, single point]",–
O=C(NCC1CCCO1)C1c2ccccc2Oc2ccccc21 (stereo not given),–,inactive: 1.26%
Cc1ccccc1OCCN1C(=O)C(=O)c2cccc(C)c21,–,inactive: -25.5%
CCOc1ccc(NC(=O)CCCn2c(=S)[nH]c3ccsc3c2=O)cc1,"inconclusive [inhibitor, single point]",–
CN(C(=O)c1cccc(COc2ccc(Cl)cc2Cl)c1)c1ccccc1,"inconclusive [activator, single point]",–
O=[N+]([O-])c1cccc(NC(=S)Nc2nc(-c3ccccc3Cl)cs2)c1,active: 2.51 µM,–
COc1cccc(NC(=O)CSC2=C(C#N)C(c3ccco3)C3=C(CCCC3=O)N2)c1 (stereo not given),–,inactive: -6.96%
CCN(CC)CCNS(=O)(=O)c1ccc(OC)c(Br)c1,–,inactive: 3.06%
CCc1nc(C)cn1S(=O)(=O)c1cc(C)c(OC)c(C)c1C,"inconclusive [inhibitor, partial curve]",–
COc1ccccc1CC1S/C(=N/N=C/c2ccco2)NC1=O (stereo not given),active: 7.08 µM,–
CCOC(=O)Cc1csc(NC(=O)c2ccc(S(=O)(=O)N3CCCC3)cc2)n1,–,inactive: -22.7%
CCCCCC(=O)NC(=S)Nc1ccc(Br)cc1C,"inconclusive [inhibitor, single point]",–
COc1cc(/C=C/C(=O)OCC(=O)c2c[nH]c3ccccc23)ccc1OC(F)F,–,inactive: -1.18%
Cc1csc2ncnc(NNC(=O)c3ccc(Cl)cc3)c12,active: 4.47 µM,–
O=C(Nc1ncc([N+](=O)[O-])s1)C1CC(=O)N(c2ccc(F)cc2)C1 (stereo not given),"inconclusive [activator, single point]",–
